Experimental data reported in paper PMC12173503, “Enterohaemorrhagic Escherichia coli AdhE spirosome length correlates with enzymatic directionality and is perturbed by salicylidene acylhydrazides” (Open Biology, 2025).

Tests used:
[1] = target: T1, 6-His-AdhE (bifunctional aldehyde-alcohol dehydrogenase AdhE, Escherichia coli K12) (Escherichia coli K12), P0A9Q7; experiment: SAXS; settings: remark: other sources report otherwise
T1 chain: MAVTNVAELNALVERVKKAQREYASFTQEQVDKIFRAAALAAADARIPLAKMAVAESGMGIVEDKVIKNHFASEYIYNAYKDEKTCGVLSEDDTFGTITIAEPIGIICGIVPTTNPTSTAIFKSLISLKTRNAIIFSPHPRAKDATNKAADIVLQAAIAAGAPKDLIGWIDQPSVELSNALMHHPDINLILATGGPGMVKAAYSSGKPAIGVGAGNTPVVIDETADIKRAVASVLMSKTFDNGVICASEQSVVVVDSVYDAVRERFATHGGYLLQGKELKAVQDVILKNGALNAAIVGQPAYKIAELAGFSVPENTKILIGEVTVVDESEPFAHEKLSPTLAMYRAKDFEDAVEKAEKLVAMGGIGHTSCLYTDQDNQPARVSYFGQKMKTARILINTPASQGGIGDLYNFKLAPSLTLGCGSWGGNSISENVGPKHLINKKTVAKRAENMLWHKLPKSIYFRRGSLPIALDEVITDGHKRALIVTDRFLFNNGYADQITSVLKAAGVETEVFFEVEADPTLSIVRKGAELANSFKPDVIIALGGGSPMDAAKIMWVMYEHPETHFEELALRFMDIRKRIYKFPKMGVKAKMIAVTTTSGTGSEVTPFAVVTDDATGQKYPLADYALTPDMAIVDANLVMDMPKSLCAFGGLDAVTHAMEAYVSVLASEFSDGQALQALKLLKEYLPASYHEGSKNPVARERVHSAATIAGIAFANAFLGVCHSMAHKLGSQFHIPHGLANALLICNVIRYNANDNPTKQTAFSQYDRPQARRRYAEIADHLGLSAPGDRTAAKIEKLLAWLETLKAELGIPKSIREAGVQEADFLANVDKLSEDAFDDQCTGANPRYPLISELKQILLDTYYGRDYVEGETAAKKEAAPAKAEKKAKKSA

[2] = target: T1, 6-His-AdhE (bifunctional …); experiment: AUC; settings: remark: other sources report otherwise

B1: 6-His-AdhE (bifunctional aldehyde-alcohol dehydrogenase AdhE, Escherichia coli K12), P0A9Q7 1-891 (enzyme)
chain: T1 chain
With B1 the stoichiometry N [1] was 40 mer and 14 mer and the stoichiometry N [2] was < 50 mer.

Values joined by “and” are separate entries in the source; they are usually repeats but may differ in a detail not shown here. Identical values can stand only once.
